Source: PubChem BioAssay AID488969 (Vanderbilt High Throughput Screening Facility, 2010)
Over roughly 110,000 compounds, “z-score” has its median near -0.1; the highest 2% begin near 2. The list shows a part of the results. Calls of active or inactive are those of the source.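 How the source made its calls: active means z-score in the third read window above 3 or below -3; inactive means the rest.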

What follows are compounds tested against Metabotropic glutamate receptor 8 (Rattus norvegicus) (UniProt P70579) (assay: mGluR8 Gi/Go-coupled signaling modulation – cell-based, rat, thallium flux, HTS, primary screen (AID 488969)). Conditions: HEK293 rat mGluR8, GIRK (G protein-gated inwardly rectifying potassium channel) thallium flux, FluoZin2; at 10 µM; stronger effect = higher value; submaximal glutamate (EC20) added with thallium.
Chain of UniProt P70579 (P70579 whole entry, looked up): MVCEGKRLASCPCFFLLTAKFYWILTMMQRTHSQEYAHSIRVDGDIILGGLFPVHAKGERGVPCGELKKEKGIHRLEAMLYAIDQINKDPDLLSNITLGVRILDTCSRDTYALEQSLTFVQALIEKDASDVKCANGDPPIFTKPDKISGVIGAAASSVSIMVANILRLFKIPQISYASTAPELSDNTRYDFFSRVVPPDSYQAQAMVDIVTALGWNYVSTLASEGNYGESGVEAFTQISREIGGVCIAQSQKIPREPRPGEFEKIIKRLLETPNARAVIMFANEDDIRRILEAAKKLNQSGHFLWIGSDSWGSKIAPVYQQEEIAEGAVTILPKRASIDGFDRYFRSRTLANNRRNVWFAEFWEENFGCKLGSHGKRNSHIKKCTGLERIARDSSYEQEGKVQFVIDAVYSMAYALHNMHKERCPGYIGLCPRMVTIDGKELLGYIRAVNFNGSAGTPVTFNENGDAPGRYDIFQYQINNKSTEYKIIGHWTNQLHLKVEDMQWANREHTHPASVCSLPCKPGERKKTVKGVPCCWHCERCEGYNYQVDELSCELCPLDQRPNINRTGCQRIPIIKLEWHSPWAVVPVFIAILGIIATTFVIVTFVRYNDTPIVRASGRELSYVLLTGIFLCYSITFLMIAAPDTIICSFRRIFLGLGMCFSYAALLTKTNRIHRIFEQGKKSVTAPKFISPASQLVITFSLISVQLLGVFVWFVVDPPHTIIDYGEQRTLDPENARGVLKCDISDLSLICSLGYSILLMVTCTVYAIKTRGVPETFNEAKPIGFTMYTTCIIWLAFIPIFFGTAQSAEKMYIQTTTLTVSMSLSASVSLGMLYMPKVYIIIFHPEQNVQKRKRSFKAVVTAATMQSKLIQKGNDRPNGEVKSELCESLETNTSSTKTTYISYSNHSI
For `CC1=CC(C)(C)N2C(=O)C3(C(C#N)=C(N)Oc4cc(C)oc(=O)c43)c3cccc1c32` (stereo unspecified), the z-score was -0.19. For `CCOC(=O)c1ccc(NC(=O)CCc2c(C)nc3ncnn3c2C)cc1`, the z-score was -1.01. `CCOC(=O)C1=C(C)NC2=C(C(=O)CC(C)(C)C2)C1c1ccc(N(C)C)cc1` (stereo unspecified) was tested, and the z-score was 1.07. For `CN(C(=O)Nc1ccc(S(=O)(=O)N(C)C)cc1)C1CCCCC1`, the z-score was -0.0267. For `CC(=O)N1CCN(CC(=O)c2ccc(Br)cc2)CC1`, the z-score was -0.0782. `COc1ccc(OC)c(NC(=O)CN(c2ccc(C(C)C)cc2)S(=O)(=O)c2c(C)noc2C)c1` gave a z-score of -0.204. `COc1ccc(NC(=O)CSc2nnc(-c3cccs3)n2-c2ccccc2)cc1` gave a z-score of -0.000773. Work on `CCCCNC(c1ccccc1)c1ccncc1` (stereo unspecified) yielded a z-score of -0.241. Compound `CCOC(=O)C1C(=O)CC(C)(O)C(C(=O)OCC)C1c1ccccc1OC` (stereo unspecified) has a z-score of 0.134. Compound `COc1ccc(C(=O)NC2(C(F)(F)F)C(=O)Nc3c2c(=O)[nH]c(=O)n3CCc2ccc(OC)c(OC)c2)cc1` (stereo unspecified) has a z-score of 0.0668. `Cc1ccc(N2C(=O)/C(=C/c3ccco3)SC2=S)cc1` was tested, and the z-score was -0.0828. Compound `CCCNC(=O)Cc1ccsc1` has a z-score of 0.11. Work on `Cc1[nH]c(=O)[nH]c(=O)c1/C=N/NC(=O)[C@@H](NC(=O)OC(C)(C)C)C(C)C` yielded a z-score of 0.235. Work on `CCCCS(=O)CC(O)COCC` (stereo unspecified) yielded a z-score of 0.372. `O=[N+]([O-])c1ccc(Nc2nc(N/N=C\c3ccc4c(c3)OCO4)nc(N3CCCCC3)n2)cc1` showed a z-score of -0.0977. `O=C(Cc1ccccc1)NC(Nc1cccc2ccccc12)C(Cl)(Cl)Cl` (stereo unspecified) gave a z-score of 0.0891. With `CCOc1ccc(/C=N/NC(=O)CC(=O)Nc2ccc(Cl)c(Cl)c2)cc1` the z-score was -0.265. With `CC(C)N1C(=O)c2ccccc2C1C(=O)NC1CCCCCC1` (stereo unspecified) the z-score was 0.000285. Compound `COc1cccc(-n2c(COc3ccccc3C)nnc2SCC(=O)O)c1` has a z-score of -0.14. With `CCOC(=O)CN1N=C(/C=C/c2ccccc2)CCC1=O` the z-score was -0.0458. `CCOc1ccc(-n2nc3ccc(NC(=O)c4ccc5c(c4)OCCO5)cc3n2)cc1` was tested, and the z-score was -0.0865. `C=CCNC(=O)CC(=O)N/N=C/c1cccc(Br)c1` showed a z-score of 0.0243. In the case of `Cc1ccc(NC(=O)c2ccc(OC(F)F)cc2)cc1S(=O)(=O)N(C)C`, the z-score is reported as -0.526. In the case of `CCC1(C)OCC(Cn2c3ccccc3c3ccccc32)O1` (stereo unspecified), the z-score is reported as active: 3.89. In the case of `COc1ccccc1C(=O)NNC(=O)c1ccccc1[N+](=O)[O-]`, the z-score is reported as -0.346. `Cc1ccc(S(=O)(=O)CCC(=O)OCC(=O)c2c(C)[nH]c3ccccc23)cc1` was tested, and the z-score was -0.175. `COC(=O)c1c(NC(=O)CSc2nc3nc(C)cc(C)n3n2)sc(C)c1C` showed a z-score of -0.986. For `CC1=C(C(=O)OCC2CCCO2)C(c2ccccc2)NC(=O)N1` (stereo unspecified), the z-score was -0.168. `CCC(C)c1ccc(NC(=O)c2cccnc2)cc1` (stereo unspecified) gave a z-score of 0.264. `OCc1nn2c(c1Br)NC(c1ccccc1)CC2C(F)(F)F` (stereo unspecified) was tested, and the z-score was -0.296. In the case of `Cc1cc(Br)ccc1OCC(=O)N1CCCCCC1`, the z-score is reported as -0.274. In the case of `C/C(=N\NC(=O)COc1ccc(C#N)cc1)c1ccc(N2CCOCC2)cc1`, the z-score is reported as 1.67. Work on `c1ccc(-c2noc(-c3cccc4ccccc34)n2)cc1` yielded a z-score of -0.0289. For `COc1cccc(/C=C2\SC(=O)N(CCC(=O)NNC(=O)c3ccccc3Cl)C2=O)c1`, the z-score was -0.0918. Work on `CC(=O)c1c(C)[nH]c(C(=O)NCCN2CCC(C)CC2)c1C` yielded a z-score of 0.191. `OC(COc1ccc2cc(Br)ccc2c1)CN1CCCC1` (stereo unspecified) gave a z-score of -0.288. `Nc1ccc(-c2nc3ccc(-c4nc5ccccc5o4)cc3[nH]2)cc1` gave a z-score of 0.302. `Cc1ccccc1NS(=O)(=O)c1cc(C(N)=O)ccc1C` showed a z-score of -0.42. `CC(=O)N1N=C(c2ccc(C)cc2)OC1c1ccc(C(C)C)cc1` (stereo unspecified) showed a z-score of -0.402. Work on `CCNC(=S)NNC(=O)CCn1c2ccccc2c2ccccc21` yielded a z-score of 1.79. In the case of `Cc1cccc2c1NC(=O)C2(c1ccc(O)cc1)c1ccc(O)cc1`, the z-score is reported as -0.224. `Cc1ccc(NC(=O)CCn2cccc2)cc1F` was tested, and the z-score was -0.0137. For `Cc1cc(N2C(=O)C(O)=C(C(=O)c3ccco3)C2c2ccc(O)cc2)no1` (stereo unspecified), the z-score was -0.207. `COc1cccc(Nc2nc(-c3sc(N)nc3C)cs2)c1` gave a z-score of -0.626. `CC(C)C(=O)Nc1ccc(C(=O)NNC(=O)CCc2ccccc2)cc1` showed a z-score of -0.00881. With `C=CCn1c(CNC(=O)c2cccs2)nnc1SCc1ccc(Cl)cc1Cl` the z-score was -0.28. Work on `O=C(NC(=S)Nc1ccc(S(=O)(=O)N2CCCCC2)cc1)c1ccccc1` yielded a z-score of 0.0869. `CCCCCC(=O)NC(Nc1ccc(S(N)(=O)=O)cc1)C(Cl)(Cl)Cl` (stereo unspecified) was tested, and the z-score was -0.213. `O=c1ccc(OCCOc2ccccc2)nn1-c1ccccc1` gave a z-score of -0.448. In the case of `CN(C)S(=O)(=O)c1cccc(-c2nn(-c3ccccc3)cc2/C=C(/C#N)C(=O)NCc2ccco2)c1`, the z-score is reported as -0.361. `CCOC(=O)c1c(N)sc(C(O)(C(F)(F)F)C(F)(F)F)c1-c1ccc(Cl)cc1` gave a z-score of -0.00372. In the case of `CCCOc1ccc(/C(O)=C2/C(=O)C(=O)N(CCCOC)C2c2ccncc2)cc1` (stereo unspecified), the z-score is reported as 0.0869. Work on `COc1nnc(-c2ccc(N3CCCCC3)c(N)c2)c2ccccc12` yielded a z-score of -0.0963. With `COC(=O)c1sccc1OC(C)C(C)=O` (stereo unspecified) the z-score was -0.0883. Work on `O=C(c1ccccc1NS(=O)(=O)c1cccs1)N1CCCC1` yielded a z-score of 0.676. With `O=C(N/N=C/c1cccs1)c1ccccn1` the z-score was -0.181. `CCCc1ccc(-c2cc(C(=O)N/N=C/c3ccc([N+](=O)[O-])o3)c3ccccc3n2)cc1` gave a z-score of -0.0182. Compound `Cc1ccc(C(=O)NCc2ccc3c(c2)OCO3)cc1S(=O)(=O)N1CCOCC1` has a z-score of -0.0929. With `CC(=O)N(c1ccccc1)C1CCCC1` the z-score was -0.00135. `Cc1nc(SCC(=O)N(C)C2CCCCC2)[nH]c(=O)c1Cc1ccccc1` showed a z-score of -2.29. With `Cc1c(Cl)cccc1N1C(=O)CC(N(O)c2ccccc2)C1=O` (stereo unspecified) the z-score was -0.153. Work on `Cn1c(SCC(=O)NC2CCCCC2)nnc1-c1cc2ccccc2o1` yielded a z-score of -0.294. Compound `CCCc1cc(=O)n2[nH]c(-c3ccc(OC)cc3)nc2n1` has a z-score of -0.136. `O=C(COc1ccccc1F)c1ccc(O)cc1O` showed a z-score of 0.0502. `Cc1cc(NC(=O)C(C)(C)C)no1` gave a z-score of -0.078. In the case of `CCn1nc(C)cc1Nc1ccccc1`, the z-score is reported as -0.0666. `CN1/C(=C/C=N/NC(=O)c2ccc([N+](=O)[O-])cc2)C(C)(C)c2ccccc21` showed a z-score of 0.228. For `O=C(C1CCC1)N1CCc2cc(S(=O)(=O)NCC3COc4ccccc4O3)ccc21` (stereo unspecified), the z-score was 0.767. `COc1ccccc1OCC(=O)Nc1sc2c(c1C(=O)NCC1CCCO1)CCC2` (stereo unspecified) was tested, and the z-score was active: -4.18. `CCSc1nc(-c2ccco2)ccc1C#N` showed a z-score of -0.085. Work on `COc1cccc(C(=O)CN(C(=O)c2ccc(Cl)c(Cl)c2)N2C(=O)C3CCCCC3C2=O)c1` (stereo unspecified) yielded a z-score of -0.109.
